Some of the results follow. These are noisy estimates, calculated here from bound and input reads.

This assay deals with T1, Pho4 (S. cerevisiae) (UniProt P07270).
T1 sequence: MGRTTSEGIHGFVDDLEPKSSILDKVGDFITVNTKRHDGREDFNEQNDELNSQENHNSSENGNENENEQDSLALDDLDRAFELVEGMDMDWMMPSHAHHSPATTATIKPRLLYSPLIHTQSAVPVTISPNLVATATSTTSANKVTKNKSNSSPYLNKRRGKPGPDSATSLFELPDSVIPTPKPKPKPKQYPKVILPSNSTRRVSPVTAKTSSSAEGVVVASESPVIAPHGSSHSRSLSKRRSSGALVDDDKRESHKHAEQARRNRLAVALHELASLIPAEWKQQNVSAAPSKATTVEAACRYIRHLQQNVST
Description: relative binding free energy (BET-seq); higher = weaker binding. Conditions: reference: library average.
On to GTGGGCACGTGAGATT, for which the “relative binding free energy” value came to 0.1 kcal/mol. The result for TTTCTCACGTGAATGG reads 0.4 kcal/mol.

For TTCTTCACGTGGTTCT, the “relative binding free energy” value turned out to be 0.33 kcal/mol.

For the sequence GGGGTCACGTGTAAGC, the “relative binding free energy” value is 0.26 kcal/mol. The result for ATTCTCACGTGGGGGT reads 0.06 kcal/mol; that for TTTGACACGTGTTGCA, 0.05 kcal/mol; that for ATTCTCACGTGATGTG, 0.15 kcal/mol. For the sequence TGAATCACGTGTAATA, the “relative binding free energy” value was 0.19 kcal/mol. The result for AGTTCCACGTGTTAGG reads 0.23 kcal/mol; that for AGTTGCACGTGAGGTC, 0.17 kcal/mol; that for ATTTGCACGTGGGGTG, -0.19 kcal/mol. For the sequence TATTGCACGTGTTACG, the “relative binding free energy” value is -0.05 kcal/mol.

Turning to GTATGCACGTGGCCGG, the “relative binding free energy” value is -0.24 kcal/mol.

As to AAGATCACGTGAAGTG, the “relative binding free energy” value was 0.33 kcal/mol.

With GCGTTCACGTGATGGA, the “relative binding free energy” value stood at 0.48 kcal/mol. The result for ATGGACACGTGGGGCT reads -0.06 kcal/mol; that for GAAGGCACGTGTTAAT, -0.06 kcal/mol; that for GTTTTCACGTGATGAG, 0.42 kcal/mol. As to TTATACACGTGGGCTT, the “relative binding free energy” value is -0.12 kcal/mol.

In the case of GTATGCACGTGGTGTT, the “relative binding free energy” value came out at 0.02 kcal/mol.

On to TTTTTCACGTGGCAAT, for which the “relative binding free energy” value worked out at 0.24 kcal/mol.

Consider ACTTGCACGTGTGGCT, for which the “relative binding free energy” value was found to be 0.22 kcal/mol. The result for TGGTACACGTGAGCTA reads 0.32 kcal/mol; that for ATATTCACGTGTACGT, 0.06 kcal/mol. Take GGTAACACGTGTTGTC: the “relative binding free energy” value is 0.25 kcal/mol. The result for TTTTTCACGTGGGGCT reads 0.27 kcal/mol; that for TAAGGCACGTGAGGAT, 0.2 kcal/mol. The result for TATAGCACGTGGCAGT reads -0.22 kcal/mol; that for GGGTACACGTGGGGAC, 0 kcal/mol. Consider CGTTACACGTGTGGTG, for which the “relative binding free energy” value stood at 0.09 kcal/mol. The result for GTGGGCACGTGCTTTA reads -0.06 kcal/mol; that for GAGGTCACGTGGTGCG, 0.17 kcal/mol; that for TCGTACACGTGGGTGG, -0.11 kcal/mol. For the sequence TTATTCACGTGAATGA, the “relative binding free energy” value was 0.4 kcal/mol. On to CGGTTCACGTGATAGA, for which the “relative binding free energy” value was 0.3 kcal/mol.

As to ATGTACACGTGATTTT, the “relative binding free energy” value turned out to be 0.3 kcal/mol.

GGAGGCACGTGGCCTG: the “relative binding free energy” value is -0.3 kcal/mol. As to AAAGTCACGTGGCTGT, the “relative binding free energy” value is -0.01 kcal/mol. For the sequence TGCTGCACGTGAGGCT, the “relative binding free energy” value was 0.27 kcal/mol. For the sequence TATTTCACGTGCATTA, the “relative binding free energy” value came to 0.17 kcal/mol.

As for ATCGCCACGTGGTGGT, the “relative binding free energy” value is -0.18 kcal/mol. The result for TGGTGCACGTGTTGGT reads -0.01 kcal/mol; that for CGGTTCACGTGGATGC, 0.24 kcal/mol. In the case of ATAATCACGTGGTGGC, the “relative binding free energy” value was 0.01 kcal/mol. The result for TGGCGCACGTGGTCTG reads -0.24 kcal/mol. The result for AGGATCACGTGGTGAT reads 0.03 kcal/mol. The result for ATTGTCACGTGTGGGA reads 0.12 kcal/mol; that for TGTTTCACGTGCATGA, 0.28 kcal/mol; that for GGGTGCACGTGTAGGG, -0.05 kcal/mol.

In the case of GTGGACACGTGCTGTA, the “relative binding free energy” value is -0.06 kcal/mol.

As for GATTTCACGTGTTGGC, the “relative binding free energy” value came to 0.37 kcal/mol. The result for TGGGCCACGTGTTTTT reads 0.05 kcal/mol. ATTGGCACGTGAAATG: the “relative binding free energy” value turned out to be 0.1 kcal/mol. The result for TCGGTCACGTGGTAGT reads -0.02 kcal/mol; that for ATAATCACGTGTGTAG, 0.15 kcal/mol. Turning to TTATACACGTGGTACT, the “relative binding free energy” value is -0.07 kcal/mol.

With GAGTTCACGTGTGTCT, the “relative binding free energy” value was 0.34 kcal/mol. The result for GCGGTCACGTGTTATT reads 0.1 kcal/mol.

On to ATGGTCACGTGCAGGA, for which the “relative binding free energy” value stood at 0.12 kcal/mol. Consider TTCAACACGTGTTTTT, for which the “relative binding free energy” value was 0 kcal/mol. For GCTGTCACGTGGATTG, the “relative binding free energy” value amounted to 0.04 kcal/mol. The result for TGTAGCACGTGAGTTA reads 0.27 kcal/mol. The result for TAGGACACGTGGGAAG reads -0.02 kcal/mol; that for AATTTCACGTGTTTTC, 0.13 kcal/mol; that for CGGGGCACGTGGCAGT, -0.16 kcal/mol. The result for GAGGTCACGTGGCGGT reads 0.15 kcal/mol. Consider CGGAACACGTGCGGTG, for which the “relative binding free energy” value is 0.1 kcal/mol.

For the sequence AATATCACGTGAGGTG, the “relative binding free energy” value was 0.3 kcal/mol. The result for ACAGGCACGTGTAGTT reads -0.07 kcal/mol.

In the case of TGGGTCACGTGGTAGT, the “relative binding free energy” value was 0.07 kcal/mol. As for CAAGTCACGTGGGAGG, the “relative binding free energy” value is -0.02 kcal/mol. The result for TGTTGCACGTGTCAGA reads 0.16 kcal/mol. Consider TTATACACGTGTCTTA, for which the “relative binding free energy” value was determined as 0.03 kcal/mol. The result for TGATGCACGTGTAACG reads 0.06 kcal/mol; that for ATTATCACGTGAGGGA, 0.29 kcal/mol; that for TGTAGCACGTGATGTT, 0.02 kcal/mol.

As for TTCGACACGTGTTGTG, the “relative binding free energy” value was 0.09 kcal/mol. On to ATGATCACGTGGTGAA, for which the “relative binding free energy” value was determined as 0.19 kcal/mol. The result for GTTTGCACGTGGAGGG reads 0.06 kcal/mol; that for GCGGCCACGTGGGGTC, -0.08 kcal/mol. For CGGGACACGTGTGCGG, the “relative binding free energy” value was -0.01 kcal/mol.

Consider TAGGTCACGTGGAAGA, for which the “relative binding free energy” value is 0.16 kcal/mol. As for GGGAGCACGTGTTATT, the “relative binding free energy” value is -0.1 kcal/mol.

Consider GTACACACGTGGGGTT, for which the “relative binding free energy” value is -0.06 kcal/mol. Regarding GTGGGCACGTGCTTAA, the “relative binding free energy” value was -0.14 kcal/mol. Consider AGAGTCACGTGTTTGA, for which the “relative binding free energy” value is 0.17 kcal/mol. The result for TTGCTCACGTGTAGGT reads 0.07 kcal/mol.

For ATGTACACGTGCGTTG, the “relative binding free energy” value was -0.02 kcal/mol. The result for GGGGACACGTGATGGT reads 0.27 kcal/mol; that for TGGTGCACGTGCAGCT, -0.11 kcal/mol; that for ATGCTCACGTGTGGGG, 0.22 kcal/mol. GAGTTCACGTGCTTGT: the “relative binding free energy” value came to 0.29 kcal/mol. For the sequence CGTGTCACGTGAGGAA, the “relative binding free energy” value came to 0.25 kcal/mol.

As for GGTTTCACGTGGGCTA, the “relative binding free energy” value amounted to 0.08 kcal/mol. For the sequence GCGGTCACGTGGTGAG, the “relative binding free energy” value worked out at 0.07 kcal/mol. The result for GTTATCACGTGTGTTT reads 0.34 kcal/mol; that for AGTGTCACGTGCAAGT, 0.08 kcal/mol. The result for TTTGTCACGTGGAGGC reads 0.08 kcal/mol; that for ATGGTCACGTGAATTG, 0.42 kcal/mol. On to TGTCGCACGTGCGTAT, for which the “relative binding free energy” value was -0.09 kcal/mol. The result for ACTCTCACGTGTGGGG reads 0.17 kcal/mol; that for TGGGTCACGTGATATT, 0.26 kcal/mol. The result for TATGTCACGTGTTAGG reads 0.16 kcal/mol. For the sequence TTGGGCACGTGCAATA, the “relative binding free energy” value is -0.13 kcal/mol. For TACGTCACGTGGAGGT, the “relative binding free energy” value was 0.07 kcal/mol.

Regarding GGGTTCACGTGTGGGC, the “relative binding free energy” value was 0.37 kcal/mol. The result for CGGGGCACGTGGTAAT reads -0.2 kcal/mol; that for TTTTGCACGTGCTGAG, -0.02 kcal/mol. Regarding GGTGACACGTGTGGGA, the “relative binding free energy” value turned out to be 0.16 kcal/mol. The result for GGTCGCACGTGTGGAT reads 0.07 kcal/mol.

Take ATTTGCACGTGGAGCT: the “relative binding free energy” value stood at 0.04 kcal/mol. The result for AGATTCACGTGCGTGT reads 0.27 kcal/mol; that for TGCAGCACGTGTAGGG, 0.01 kcal/mol.

Turning to GACGACACGTGGTGTT, the “relative binding free energy” value turned out to be 0 kcal/mol. With TGAATCACGTGTGGTC, the “relative binding free energy” value turned out to be 0.21 kcal/mol.

(Values after the BET-seq Pho4 binding data (Le et al. 2018).)
